Positions count from the first letter of the chain named. In names and notes the source's numbering stands. These are yes or no findings as the source states them, for the method shown. In cells and extracts the contact can be indirect. Some binding calls cover weakened binding; strength is not graded here. For part of these data: Sequences can lack the tags named with a protein.

Protein sequences, listed by entry. Tags and fused reporters are not part of them. Lines headed by an entry give the natural chain unless they say otherwise; changes in a name come on top. Chains listed by the source or under a name are the forms on record and can include a tag or linker. Residues count along the entry.
UniProt P13569: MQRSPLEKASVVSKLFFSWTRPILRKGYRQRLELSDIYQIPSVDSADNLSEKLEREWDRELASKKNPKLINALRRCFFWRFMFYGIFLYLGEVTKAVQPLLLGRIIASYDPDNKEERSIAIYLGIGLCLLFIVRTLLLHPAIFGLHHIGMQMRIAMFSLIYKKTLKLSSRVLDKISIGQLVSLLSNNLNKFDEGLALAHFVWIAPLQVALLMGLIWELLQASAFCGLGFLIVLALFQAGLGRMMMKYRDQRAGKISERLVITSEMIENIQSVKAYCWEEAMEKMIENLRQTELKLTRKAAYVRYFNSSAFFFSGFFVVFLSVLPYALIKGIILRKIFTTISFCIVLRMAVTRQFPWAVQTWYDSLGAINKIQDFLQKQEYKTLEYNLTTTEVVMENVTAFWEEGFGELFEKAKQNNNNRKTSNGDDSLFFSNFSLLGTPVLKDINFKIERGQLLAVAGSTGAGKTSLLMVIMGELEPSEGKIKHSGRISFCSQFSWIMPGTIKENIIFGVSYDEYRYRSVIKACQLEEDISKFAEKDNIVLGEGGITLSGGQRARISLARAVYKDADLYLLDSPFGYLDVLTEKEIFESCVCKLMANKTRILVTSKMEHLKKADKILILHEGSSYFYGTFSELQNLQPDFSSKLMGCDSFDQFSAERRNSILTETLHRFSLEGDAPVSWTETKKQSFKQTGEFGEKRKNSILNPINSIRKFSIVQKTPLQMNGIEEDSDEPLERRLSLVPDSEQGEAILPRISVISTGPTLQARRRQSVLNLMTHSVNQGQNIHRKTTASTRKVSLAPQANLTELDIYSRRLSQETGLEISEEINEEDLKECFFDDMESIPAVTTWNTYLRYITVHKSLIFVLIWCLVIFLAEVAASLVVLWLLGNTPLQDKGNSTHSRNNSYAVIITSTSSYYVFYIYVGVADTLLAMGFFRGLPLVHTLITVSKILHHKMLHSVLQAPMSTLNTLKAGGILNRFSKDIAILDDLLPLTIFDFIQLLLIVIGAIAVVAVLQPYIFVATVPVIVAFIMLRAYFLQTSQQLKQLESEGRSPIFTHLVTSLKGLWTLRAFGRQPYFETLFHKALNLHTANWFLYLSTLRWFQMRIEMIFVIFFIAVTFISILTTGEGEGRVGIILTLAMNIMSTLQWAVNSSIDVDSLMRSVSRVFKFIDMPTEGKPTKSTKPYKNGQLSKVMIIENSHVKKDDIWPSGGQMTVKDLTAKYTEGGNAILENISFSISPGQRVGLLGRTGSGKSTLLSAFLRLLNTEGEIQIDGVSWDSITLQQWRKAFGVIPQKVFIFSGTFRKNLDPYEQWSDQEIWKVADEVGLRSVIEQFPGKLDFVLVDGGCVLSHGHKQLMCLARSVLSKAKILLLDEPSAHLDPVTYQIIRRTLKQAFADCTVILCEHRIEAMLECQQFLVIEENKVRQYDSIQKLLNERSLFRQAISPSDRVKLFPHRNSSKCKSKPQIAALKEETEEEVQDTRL
HA‐tagged ΔF508‐CFTR (extracellular‐tagged full‐length HA‐ΔF508‐CFTR) (P13569, form named): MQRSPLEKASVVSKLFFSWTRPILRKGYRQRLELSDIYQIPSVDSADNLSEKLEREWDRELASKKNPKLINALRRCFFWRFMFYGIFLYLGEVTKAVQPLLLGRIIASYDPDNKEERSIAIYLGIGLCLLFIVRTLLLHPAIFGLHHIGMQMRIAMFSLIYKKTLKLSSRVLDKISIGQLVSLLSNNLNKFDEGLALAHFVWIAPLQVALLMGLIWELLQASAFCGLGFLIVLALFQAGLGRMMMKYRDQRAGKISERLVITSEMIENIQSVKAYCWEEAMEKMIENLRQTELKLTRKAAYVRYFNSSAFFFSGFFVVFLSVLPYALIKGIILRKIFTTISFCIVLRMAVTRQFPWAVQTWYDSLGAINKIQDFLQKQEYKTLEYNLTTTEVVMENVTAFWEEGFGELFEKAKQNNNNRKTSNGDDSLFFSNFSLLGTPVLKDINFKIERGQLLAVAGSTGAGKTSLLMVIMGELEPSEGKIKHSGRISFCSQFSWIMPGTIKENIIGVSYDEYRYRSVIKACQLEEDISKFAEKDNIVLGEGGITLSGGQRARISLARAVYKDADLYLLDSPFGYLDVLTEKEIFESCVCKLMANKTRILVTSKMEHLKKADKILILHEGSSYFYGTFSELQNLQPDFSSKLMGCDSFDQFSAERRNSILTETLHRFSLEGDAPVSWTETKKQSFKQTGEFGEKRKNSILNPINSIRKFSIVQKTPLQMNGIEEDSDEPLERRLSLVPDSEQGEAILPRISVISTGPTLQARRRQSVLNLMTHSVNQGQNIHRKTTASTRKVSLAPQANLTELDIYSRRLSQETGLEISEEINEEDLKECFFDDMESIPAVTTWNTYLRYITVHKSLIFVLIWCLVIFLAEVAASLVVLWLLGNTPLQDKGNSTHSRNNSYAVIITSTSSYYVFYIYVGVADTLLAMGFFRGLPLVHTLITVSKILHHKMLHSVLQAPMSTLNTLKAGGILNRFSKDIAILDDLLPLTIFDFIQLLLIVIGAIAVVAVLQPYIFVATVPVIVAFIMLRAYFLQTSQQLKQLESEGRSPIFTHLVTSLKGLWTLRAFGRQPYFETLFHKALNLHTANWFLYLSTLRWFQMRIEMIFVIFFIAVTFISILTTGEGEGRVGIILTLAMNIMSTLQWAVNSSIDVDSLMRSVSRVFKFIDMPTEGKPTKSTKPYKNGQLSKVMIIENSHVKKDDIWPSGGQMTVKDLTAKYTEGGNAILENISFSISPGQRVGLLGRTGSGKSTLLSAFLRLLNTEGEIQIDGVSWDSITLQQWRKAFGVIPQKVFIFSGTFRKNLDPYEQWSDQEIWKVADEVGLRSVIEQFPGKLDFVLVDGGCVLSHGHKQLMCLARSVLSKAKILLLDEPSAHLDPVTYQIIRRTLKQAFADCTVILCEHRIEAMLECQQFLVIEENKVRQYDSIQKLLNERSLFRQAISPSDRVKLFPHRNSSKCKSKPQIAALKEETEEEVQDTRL
UniProt Q15363, residues 21-201: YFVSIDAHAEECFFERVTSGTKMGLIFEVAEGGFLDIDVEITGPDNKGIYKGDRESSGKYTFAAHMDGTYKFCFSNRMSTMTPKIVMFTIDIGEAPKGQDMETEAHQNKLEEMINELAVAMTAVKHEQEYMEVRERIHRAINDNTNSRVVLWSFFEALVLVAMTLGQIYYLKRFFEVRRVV

The results in this text go back to paper PMC9350134.

Test [1] addresses T1, p.H723R‐pendrin (human) (UniProt O43511).
T1 sequence (chain, core-glycosylated, N-linked): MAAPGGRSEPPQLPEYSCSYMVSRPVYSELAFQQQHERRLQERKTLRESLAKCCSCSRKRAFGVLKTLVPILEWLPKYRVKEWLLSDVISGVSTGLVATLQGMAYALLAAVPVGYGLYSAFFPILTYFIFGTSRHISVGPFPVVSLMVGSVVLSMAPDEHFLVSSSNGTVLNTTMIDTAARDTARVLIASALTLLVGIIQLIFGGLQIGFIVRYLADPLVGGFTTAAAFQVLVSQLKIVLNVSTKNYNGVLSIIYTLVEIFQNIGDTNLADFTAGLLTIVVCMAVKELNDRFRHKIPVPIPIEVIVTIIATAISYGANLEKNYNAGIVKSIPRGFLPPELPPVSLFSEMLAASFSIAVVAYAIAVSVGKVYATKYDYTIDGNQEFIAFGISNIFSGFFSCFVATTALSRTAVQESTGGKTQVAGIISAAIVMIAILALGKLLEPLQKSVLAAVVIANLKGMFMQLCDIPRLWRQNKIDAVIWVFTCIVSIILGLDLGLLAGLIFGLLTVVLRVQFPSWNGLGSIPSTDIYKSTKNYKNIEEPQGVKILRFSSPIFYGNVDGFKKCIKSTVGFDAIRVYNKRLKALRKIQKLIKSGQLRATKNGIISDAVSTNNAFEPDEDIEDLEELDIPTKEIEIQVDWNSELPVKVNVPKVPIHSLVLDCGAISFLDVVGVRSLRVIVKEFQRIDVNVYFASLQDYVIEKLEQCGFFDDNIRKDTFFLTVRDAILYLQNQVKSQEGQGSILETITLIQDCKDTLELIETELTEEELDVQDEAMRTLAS
Kind of test: co-IP.

The target of test [2] is ΔF508‐CFTR (cystic fibrosis transmembrane conductance regulator with deletion of phenylalanine 508) (human) (UniProt P13569). Kind of test: co-IP.
The target in test [3] is T2, DYK‐tagged TMED3 (TMED3‐DYK) (human) (UniProt Q9Y3Q3).
T2 sequence: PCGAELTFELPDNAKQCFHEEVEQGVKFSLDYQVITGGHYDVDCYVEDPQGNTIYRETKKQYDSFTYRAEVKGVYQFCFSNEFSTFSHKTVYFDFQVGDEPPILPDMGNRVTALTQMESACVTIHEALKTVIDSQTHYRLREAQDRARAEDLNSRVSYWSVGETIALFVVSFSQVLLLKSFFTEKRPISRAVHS
Kind of test: co-IP; HEK293 cells transfected with DYK‐tagged TMED2, 3, 9 or 10, ARF1‐Q71L in some cells; precipitated with anti‐DYK, blotted with antibodies against each TMED.

Test [4] deals with T3, GST‐fused TMED3‐GOLD (GST‐TMED3‐GOLD) (human) (UniProt Q9Y3Q3).
T3 sequence: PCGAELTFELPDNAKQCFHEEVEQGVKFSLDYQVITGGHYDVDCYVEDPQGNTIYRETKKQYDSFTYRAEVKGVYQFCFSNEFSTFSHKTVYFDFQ
Kind of test: pull-down; GST‐fused TMED3 proteins bound to glutathione Sepharose, incubated overnight at 4 °C with lysates of HEK293 cells expressing CFTR; in Figure 5D,E cells with ARF1‐Q71L and 1‐deoxynojirimycin (100 µM), kifunensine (10 µM) or swainsonine (100 µM); only the target purified.

The target of test [5] is T3, GST‐fused TMED3‐GOLD (GST‐TMED3‐GOLD) (human). Kind of test: pull-down; only the target purified.
Test [6] deals with WT‐CFTR (wild‐type cystic fibrosis transmembrane conductance regulator) (human) (UniProt P13569). Kind of test: co-IP.
The target in test [7] is T4, WT‐pendrin (human) (UniProt O43511).
T4 sequence: T1 sequence (chain, core-glycosylated, N-linked) with R723H
Kind of test: co-IP.

Test [8] deals with T5, DYK‐tagged TMED10 (TMED10‐DYK) (human) (UniProt P49755).
T5 sequence: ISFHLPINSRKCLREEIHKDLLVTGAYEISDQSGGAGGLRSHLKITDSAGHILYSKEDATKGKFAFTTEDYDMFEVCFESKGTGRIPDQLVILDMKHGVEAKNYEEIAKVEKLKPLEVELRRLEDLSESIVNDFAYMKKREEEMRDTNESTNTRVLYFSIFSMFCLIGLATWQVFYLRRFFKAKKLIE
Kind of test: co-IP; HEK293 cells transfected with DYK‐tagged TMED2, 3, 9 or 10, ARF1‐Q71L in some cells; precipitated with anti‐DYK, blotted with antibodies against each TMED.

In test [9] the target is DYK‐tagged TMED2 (TMED2‐DYK) (human) (UniProt Q15363). The test is described as above.
For test [10], the target named is T6, DYK‐tagged TMED9 (TMED9‐DYK) (human) (UniProt Q9BVK6).
T6 sequence: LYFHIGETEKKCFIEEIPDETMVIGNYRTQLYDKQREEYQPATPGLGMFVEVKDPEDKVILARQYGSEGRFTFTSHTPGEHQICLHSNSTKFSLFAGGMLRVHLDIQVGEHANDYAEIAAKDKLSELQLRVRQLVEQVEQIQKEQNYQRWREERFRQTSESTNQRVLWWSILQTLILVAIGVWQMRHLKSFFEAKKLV
Described as above.

The target of test [11] is HA‐tagged ΔF508‐CFTR (extracellular‐tagged full‐length HA‐ΔF508‐CFTR) (human) (UniProt P13569). Kind of test: co-IP.
In test [12] the target is T1, p.H723R‐pendrin (human). Kind of test: co-IP; PANC‐1 cells, TMED3 and p.H723R‐pendrin, GRASP55 and/or ARF1‐Q71L co‐expressed in some cells; precipitating antibody not stated (Figure 4E,F).

As for “TMED9 (transmembrane emp24 domain‐containing protein 9) (from UniProt Q9BVK6 38-235)”, the binding entry in [1] is on record as “no binding”; in test [2], “no binding”; in test [3], “binds”.

“HA‐tagged ΔF508‐CFTR (extracellular‐tagged full‐length HA‐ΔF508‐CFTR) (from UniProt P13569 1-1480)”: the binding entry in test [4] was “binds”.

On to “ΔF508‐CFTR (cystic fibrosis transmembrane conductance regulator with deletion of phenylalanine 508) (from UniProt P13569 1-1480)”, for which, in [4], the binding entry is given as “binds”.

In the case of “TMED2 (transmembrane emp24 domain‐containing protein 2) (from UniProt Q15363 21-201)”, the figures for the binding entry in test [1], in test [2] and in test [3] were “no binding”, “no binding” and “binds”, respectively.

B1: p.H723R‐pendrin (protein, UniProt O43511 1-780)
chain: T1 sequence (chain, core-glycosylated, N-linked)
modifications: core-glycosylated, N-linked
B1: the binding entry in test [5] is listed as “binds”.

B2: TMED10 (transmembrane emp24 domain‐containing protein 10) (protein, UniProt P49755 32-219)
chain: T5 sequence
With B2, the results for the binding result in test [1], in test [2] and in [3] were “no binding”, “no binding” and “binds”, respectively.

B3: TMED3 (transmembrane emp24 domain‐containing protein 3) (protein, UniProt Q9Y3Q3 24-217)
chain: T2 sequence
For the molecule B3, the binding result in test [6], in [7], in test [1], in test [2], in test [8] and in test [9] was “binds” each time. Further, the binding entry in [10] is given as “binds”.

B4: DYK‐tagged TMED3 (TMED3‐DYK) (protein, UniProt Q9Y3Q3 24-217)
chain: T2 sequence
Turning to B4, the binding result in [11] and in test [12] was “binds” each time.
